The shares of active, inactive and inconclusive entries below differ from those in the screen. Potencies of inconclusive entries are doubtful fits and often do not repeat. Active and inactive are the calls of the source. Calls follow the shape of the dose curve; as a rule, active = well fitted curve in the direction sought with a large enough effect; inconclusive = small, poorly fitted or top-dose-only effect, or another doubt; inactive = no such curve, though single readings can be large; an effect the other way counts as inactive or inconclusive.
Tests used:
[1] = molecular target: Rap guanine nucleotide exchange factor 3 (Homo sapiens) (UniProt O95398); assay: Confirmatory qHTS for antagonist of cAMP-regulated guanine nucleotide exchange factor 3 (EPAC1) (AID 1645880); conditions: EPAC1 Rap1B-BODIPY-GDP exchange, fluorescence; activity, negative = inhibition: at 115 µM (top of the series); also: nearly all actives have a fitted effect of over 55% in size;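 as to activity, negative = inhibition: plate controls were DMSO only for no effect and full effect of the ATA control for full effect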
Procedure, shortened: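 Released BODIPY-GDP fluoresces less than Rap1-bound BODIPY-GDP; the signal is followed at 480/540 nm at 5-min intervals over 30 min, after 5 min at room temperature. Reactions contain 100 nM EPAC1, 250 nM RAP1B-BODIPY-GDP and 50 uM GDP; results are normalized to ATA and DMSO.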

[2] = molecular target: Rap guanine nucleotide exchange factor 4 (Homo sapiens) (UniProt Q8WZA2); assay: Confirmatory qHTS for antagonist of cAMP-regulated guanine nucleotide exchange factor 4 (EPAC2) (AID 1645885); conditions: activity change, negative = inhibition: at 12.7 µM (top of the series) unless noted; also: nearly all actives have a fitted effect of over 25% in size; as to activity change, negative = inhibition: % is scaled to controls: 0 for no effect and ±100 for the full control effect
[3] = molecular target: Rap guanine nucleotide exchange factor 3 (Homo sapiens) (UniProt O95398); assay: Counterscreen qHTS for agonist of cAMP-regulated guanine nucleotide exchange factor 3 (EPAC1) (AID 1645889); conditions: EPAC1 Rap1B-BODIPY-GDP exchange, fluorescence; activation: at 154 µM (top of the series) unless noted; also: nearly all actives have a fitted effect of over 40% in size; as to activation: % of control where 0% means no effect
Procedure, shortened: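 Rap1B-BODIPY-GDP 250 nM + GDP 50 uM; cpds 7-pt, final 9.74 nM–152 uM (activator mode) or from 7.32 nM upwards (inhibitor mode); RT; FI 480/540 nm at 5 and 30 min, then ± cAMP, reread.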
Potency is read from the fitted curve at half-maximal effect; tags tell the direction and shape of the fitted curve.

UniProt Q8WZA2, sequence (Q8WZA2 whole entry, looked up): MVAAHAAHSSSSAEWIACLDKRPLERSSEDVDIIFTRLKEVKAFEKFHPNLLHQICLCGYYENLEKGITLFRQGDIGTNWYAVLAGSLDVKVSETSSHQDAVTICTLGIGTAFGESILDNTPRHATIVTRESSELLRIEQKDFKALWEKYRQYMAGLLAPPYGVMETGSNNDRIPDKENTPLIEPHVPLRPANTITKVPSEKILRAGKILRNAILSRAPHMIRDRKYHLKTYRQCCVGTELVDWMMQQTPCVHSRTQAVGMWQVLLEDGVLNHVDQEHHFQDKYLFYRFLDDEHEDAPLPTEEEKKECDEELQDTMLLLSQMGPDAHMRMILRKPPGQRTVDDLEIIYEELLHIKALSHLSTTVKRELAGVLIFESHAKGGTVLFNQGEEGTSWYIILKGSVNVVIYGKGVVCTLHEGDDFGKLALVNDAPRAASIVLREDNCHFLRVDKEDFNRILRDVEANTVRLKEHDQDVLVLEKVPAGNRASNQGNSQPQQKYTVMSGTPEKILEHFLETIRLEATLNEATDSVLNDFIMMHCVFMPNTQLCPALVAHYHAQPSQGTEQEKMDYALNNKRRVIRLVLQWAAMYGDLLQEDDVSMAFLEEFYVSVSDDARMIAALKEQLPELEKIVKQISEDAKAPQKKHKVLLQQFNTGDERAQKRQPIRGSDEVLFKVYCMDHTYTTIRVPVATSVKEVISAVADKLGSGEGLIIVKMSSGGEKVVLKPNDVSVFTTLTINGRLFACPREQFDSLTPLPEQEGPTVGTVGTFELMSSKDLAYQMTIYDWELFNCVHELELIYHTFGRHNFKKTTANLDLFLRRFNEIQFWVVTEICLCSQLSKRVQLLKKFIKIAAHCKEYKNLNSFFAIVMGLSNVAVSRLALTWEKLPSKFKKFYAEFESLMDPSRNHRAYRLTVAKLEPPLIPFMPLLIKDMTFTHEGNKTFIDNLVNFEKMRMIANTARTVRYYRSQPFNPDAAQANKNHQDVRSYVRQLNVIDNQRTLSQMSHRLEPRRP
UniProt O95398, sequence (O95398 whole entry, looked up): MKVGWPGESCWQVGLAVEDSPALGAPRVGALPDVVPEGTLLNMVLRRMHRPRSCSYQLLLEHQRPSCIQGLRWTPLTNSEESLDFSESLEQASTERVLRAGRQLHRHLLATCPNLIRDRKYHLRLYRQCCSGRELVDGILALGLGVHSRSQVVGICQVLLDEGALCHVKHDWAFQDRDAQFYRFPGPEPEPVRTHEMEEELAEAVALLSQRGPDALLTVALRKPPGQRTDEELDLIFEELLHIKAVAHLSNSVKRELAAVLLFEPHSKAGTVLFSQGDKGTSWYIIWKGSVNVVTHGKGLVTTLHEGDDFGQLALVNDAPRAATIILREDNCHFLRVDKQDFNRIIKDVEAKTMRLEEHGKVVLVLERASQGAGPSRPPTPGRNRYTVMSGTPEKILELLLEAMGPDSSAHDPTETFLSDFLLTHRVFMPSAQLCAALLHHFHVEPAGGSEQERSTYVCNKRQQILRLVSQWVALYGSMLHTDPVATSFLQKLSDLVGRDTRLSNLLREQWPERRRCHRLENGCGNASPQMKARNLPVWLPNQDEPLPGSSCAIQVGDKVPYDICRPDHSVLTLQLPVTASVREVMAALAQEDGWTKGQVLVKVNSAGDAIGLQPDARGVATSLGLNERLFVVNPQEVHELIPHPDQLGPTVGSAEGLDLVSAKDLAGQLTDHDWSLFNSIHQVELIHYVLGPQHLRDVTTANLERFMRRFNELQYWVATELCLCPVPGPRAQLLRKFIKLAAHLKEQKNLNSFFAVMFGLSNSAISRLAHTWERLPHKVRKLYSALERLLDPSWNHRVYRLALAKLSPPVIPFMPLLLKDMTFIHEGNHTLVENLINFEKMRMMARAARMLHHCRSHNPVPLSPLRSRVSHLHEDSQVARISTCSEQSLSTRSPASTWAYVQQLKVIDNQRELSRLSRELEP

Row | SMILES | Potency [1] | Potency [2] | Potency [3] | activation [3] | activity, negative = inhibition [1]
1 | COc1cc(C=NNc2ccc(S(=O)(=O)Nc3ccccc3C(=O)O)cc2[N+](=O)[O-])ccc1O | active: 20 µM | inactive | inconclusive: 0.0794 µM [activator, full curve, poor fit] | – | –
2 | CCc1ccc2occ(CC(=O)Nc3ccc(C)c(C)c3)c2c1 | inconclusive: 75.7 µM [inhibitor, partial curve, poor fit] | inactive | inconclusive: 7.94 µM [activator, partial curve, poor fit] | – | –
3 | O=C1NC(=S)S/C1=C\c1coc2ccc(O)cc2c1=O | active: 39.8 µM | inactive | – | inactive: -0.252% [at 30.8 µM] | –
4 | O=C(O)C(Cc1ccccc1)N1C(=O)/C(=C/c2cccs2)SC1=S (configuration not stated) | inconclusive: 75.7 µM [inhibitor, partial curve] | active: 75.7 µM | inactive | – | –
5 | O=c1[nH]nc(CNc2ccc(O)cc2)c2ccccc12 | inactive | inconclusive: 95.3 µM [inhibitor, single point] | – | inconclusive: 60.5% [activator] | –
6 | CCC1CCCCN1CCCNC(=O)c1csc2c1CCCCC2 (configuration not stated) | inactive | inactive | – | inconclusive: 32.9% [activator] | –
7 | O=C(O)c1ccc(N=N/C(=N\Nc2ccc(C(=O)O)cc2)c2ccccc2)cc1 | inconclusive: 44.7 µM [inhibitor, partial curve] | inconclusive: 8.49 µM [inhibitor, partial curve, poor fit] | inconclusive: 0.794 µM [activator, full curve, poor fit] | – | –
8 | CCOC(=O)N/N=C/c1ccc(OCCSc2ccc(Cl)cc2)c(OC)c1 | – | inconclusive: 84.9 µM [inhibitor, partial curve, poor fit] | inactive | – | active: -73.5%
9 | O=C(NCCc1ccccc1)c1ccc2c(=O)[nH]c3c(C(=O)NCC4CCCO4)sc(=S)n3c2c1 (configuration not stated) | active: 75.7 µM | active: 30.1 µM | inactive | – | –
10 | CCCCC[C@H](C)N1C[C@@H](COCc2ccccc2)Oc2cc(N3CCC[C@H]3C(N)=O)ccc2S1(=O)=O | inconclusive: 67.5 µM [inhibitor, partial curve] | inconclusive: 37.9 µM [inhibitor, single point] | inconclusive: 11.2 µM [activator, partial curve, poor fit] | – | –
11 | CCOC(=O)c1ccc(N2C(=O)c3n[nH]c(-c4ccco4)c3C2c2ccccc2OC)cc1 (configuration not stated) | active: 75.7 µM | inactive | inconclusive: 8.91 µM [activator, partial curve, poor fit] | – | –
12 | O=c1cc(CN2CCN(S(=O)(=O)c3cccc(Cl)c3)CC2)c2ccc(O)cc2o1 | inconclusive: 42.6 µM [inhibitor, partial curve] | inconclusive: 15.1 µM [inhibitor, partial curve, poor fit] | inconclusive: 0.126 µM [activator, full curve, poor fit] | – | –
13 | Cc1ccc(Sc2ccc(S(=O)(=O)Nc3ccc(C(=O)O)cc3)cc2)cc1C | active: 67.5 µM | inactive | inactive | – | –
14 | CC(C)=CCc1c(O)ccc2c1OC(c1ccc(O)c(O)c1)CC2=O (configuration not stated) | inconclusive: 75.7 µM [inhibitor, single point] | inconclusive: 67.5 µM [inhibitor, partial curve] | – | inconclusive: 57.4% [activator] | –
15 | Cc1c(C(=O)N2c3ccccc3CC2C)oc2ccccc12 (configuration not stated) | inactive | inactive | inconclusive: 0.112 µM [activator, full curve, poor fit] | – | –
16 | COC(=O)c1c(SC)nc2ccccc2c1OCc1ccc(C)cc1 | inconclusive: 95.3 µM [inhibitor, partial curve, poor fit] | inactive | active: 17.8 µM | – | –
17 | O=S(=O)(O)c1ccc2c(c1)C(C(Cl)(Cl)Cl)OC(C(Cl)(Cl)Cl)O2 (configuration not stated) | active: 31.6 µM | inconclusive: 5.36 µM [inhibitor, single point] | – | inconclusive: 38.3% [activator] [at 30.8 µM] | –
18 | CCCCn1nnnc1C(c1ccccc1)N1CCN(c2ccc(F)cc2)CC1 (configuration not stated) | inactive | inconclusive: 5.36 µM [inhibitor, full curve, poor fit] | inconclusive: 11.2 µM [activator, partial curve, poor fit] | – | –
19 | C=Cc1ccc(CC2(C)C(=O)Nc3ccc(Cl)cc32)cc1 (configuration not stated) | inconclusive: 39.8 µM [inhibitor, partial curve] | inconclusive: 0.107 µM [inhibitor, full curve, poor fit] | inconclusive: 0.0501 µM [activator, full curve] | – | –
20 | CCN(CC)C(=O)Cn1c(SCCOc2ccc(Cl)cc2)nc2ccccc21 | inactive | inconclusive: 8.49 µM [inhibitor, single point] | inconclusive: 10 µM [activator, full curve, poor fit] | – | –

Row | SMILES | Potency [1] | Potency [2] | Potency [3] | activation [3] | activity, negative = inhibition [1]
21 | COc1ccc(S(=O)(=O)Nc2cccc(C)c2C)c2cccnc12 | inactive | inconclusive: 60.1 µM [inhibitor, partial curve] | inactive | – | –
22 | O=C(Nc1ccncc1)c1cc2ccccc2cc1O | inconclusive: 84.9 µM [inhibitor, partial curve, poor fit] | inconclusive: 60.1 µM [inhibitor, partial curve, poor fit] | inactive | – | –
23 | O=c1[nH]c2cc3c(cc2cc1CN(Cc1ccccc1)Cc1nnnn1Cc1ccco1)OCCO3 | active: 42.6 µM | inactive | inactive | – | –
24 | COc1ccccc1N(C)S(=O)(=O)c1ccc(C(=O)NC2CCCCC2)cc1 | inconclusive: 26.9 µM [inhibitor, partial curve, poor fit] | inconclusive: 47.8 µM [inhibitor, partial curve, poor fit] | inactive | – | –
25 | COc1cc(NC(=O)c2cc3nc(-c4ccccc4)cc(-c4ccccc4)n3n2)cc(OC)c1OC | inconclusive: 84.9 µM [inhibitor, single point] | inactive | inconclusive: 4.47 µM [activator, partial curve, poor fit] | – | –
26 | COc1ccccc1CCC(=O)Nc1cc(S(=O)(=O)N2CCCCC2)ccc1N1CCN(C)CC1 | inactive | inactive | active: 63.1 µM | – | –
27 | Cn1cc([C@]2(O)C(=O)Nc3ccc(Br)cc32)c2ccccc21 | inconclusive: 0.0043 µM [inhibitor, full curve, poor fit] | inconclusive: 47.8 µM [inhibitor, partial curve] | – | inconclusive: 38.7% [activator] | –
28 | Cn1c2c(c3ccccc31)CCN1CCC[C@]21c1ccccc1 | inactive | inconclusive: 37.9 µM [inhibitor, partial curve] | – | inconclusive: 62% [activator] | –
29 | CC(=Cc1ccccc1)C=C1SC(=S)N(CCCC(=O)Nc2ccc(C(=O)O)c(O)c2)C1=O | active: 37.9 µM | inactive | inconclusive: 8.91 µM [activator, partial curve, poor fit] | – | –
30 | COC(=O)c1ccc2nc(-c3ccc(C)cc3)c(Cc3ccc(C)cc3)n2c1 | inactive | active: 37.9 µM | inconclusive: 0.01 µM [activator, full curve, poor fit] | – | –
31 | COc1ccc(/C=C/C(=O)c2ccccc2)c(OC)c1 | inconclusive: 2.51 µM [inhibitor, partial curve, poor fit] | inconclusive: 1.51 µM [inhibitor, partial curve, poor fit] | – | inactive: -1.52% [at 30.8 µM] | –
32 | CCCCCC(=O)N1c2ccccc2C(C)(c2ccccc2)CC1(C)C (configuration not stated) | inconclusive: 95.3 µM [inhibitor, partial curve, poor fit] | inactive | inactive | – | –
33 | O=C1/C(=C/c2cccs2)COc2ccccc21 | inconclusive: 50.1 µM [inhibitor, partial curve, poor fit] | inactive | – | inconclusive: 55.5% [activator] [at 30.8 µM] | –
34 | Cc1ccc(C2CC(=O)Oc3cc(C)c(Br)c(C)c32)cc1 (configuration not stated) | inactive | active: 2.13 µM | inactive | – | –
35 | CCCN(CC(=O)Nc1ccccc1C)C(=O)C1CCN(c2ncnc3sc(C)c(C)c23)CC1 | inconclusive: 8.49 µM [inhibitor, partial curve, poor fit] | inconclusive: 95.3 µM [inhibitor, single point] | – | inconclusive: 26.7% [activator] | –
36 | CC(C)CNC(=O)C1(C)CCCCCN1Cc1ccccc1-c1ccccc1 (configuration not stated) | inconclusive: 84.9 µM [inhibitor, partial curve, poor fit] | inconclusive: 67.5 µM [inhibitor, partial curve] | inactive | – | –
37 | Cc1ccccc1CN1C(=O)C(C)Sc2ccc(-c3ccco3)cc21 (configuration not stated) | inconclusive: 47.8 µM [inhibitor, partial curve] | inactive | – | inconclusive: 45% [activator] | –
38 | CCCC(=O)O[C@@H]1C[C@@H](C)N(C(=O)c2ccccc2)c2ccc(C)cc21 | inactive | inactive | inconclusive: 0.0398 µM [activator, full curve, poor fit] | – | –
39 | CC(C)n1c(CNC(=O)c2ccccc2F)nnc1SCC(=O)NC1CCCCC1 | inconclusive: 37.9 µM [inhibitor, partial curve] | inconclusive: 23.9 µM [inhibitor, single point] | inconclusive: 0.126 µM [activator, full curve, poor fit] | – | –

Source: PubChem BioAssay (NCATS)
